Data: PubChem BioAssay AID1745845 (National Center for Advancing Translational Sciences (NCATS), 2022)
Out of some 360,000 compounds screened, about 2,600 (0.72%) were called active. Inconclusive means that the source gave no clear call. Such entries were picked first, then a sample of the others. Calls come from the whole dose curve; as a rule, active = well fitted inhibition curve with a large enough effect; inconclusive = small, poorly fitted or top-dose-only effect; inactive = no such curve, though single readings can be large or run the other way. Where the call is inconclusive, the potency comes from a doubtful curve fit.

assay: Primary qHTS for Inhibitors of ATXN expression; conditions: HEK-293 ATXN2-luciferase reporter, luminescence, 24 h; activity change, negative = inhibition: at 57 µM (top of the series); note: nearly all actives have a fitted effect of over 55% in size
Outline: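 qHTS (up to 57 uM final) was run with 24 h compound exposure of reporter cells at 37 °C. Each well was multiplexed: SteadyGlo luminescence measured ATXN2-luciferase expression after a fluorogenic Gly-Phe-AFC viability readout (25 uM final).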
% is set by controls: 0 for no effect and ±100 for the full control effect; potency is the fitted concentration of half-maximal effect; tags give direction and shape of the fitted curve.

Compound	Potency	activity change, negative = inhibition
CCc1sc(C(=O)Nc2nc(-c3ccccn3)cs2)cc1C	active: 25.1 µM	
O=[N+]([O-])c1ccc(NCCOc2ccccc2Cl)nc1	inactive	
CCCC(O)c1nc2ccccc2n1CCCOc1ccc(Cl)cc1 (stereo not drawn)	inactive	
CCOC(=O)c1cc([N+](=O)[O-])cc([N+](=O)[O-])c1Sc1ncnc2nc[nH]c12	inconclusive: 37.7 µM [inhibitor, single point]	
C#Cc1ccc([C@@H]2C=C(C(=O)N3CCN(Cc4ccccc4)CC3)O[C@H](OCC)[C@H]2CCCO)cc1	inconclusive: 39.8 µM [inhibitor, single point]	
Cc1ccc(C)c2c1c1ccccc1n2C	inactive	
OCc1cccc(-c2cnc3c(Nc4cccc(OC(F)(F)C(F)F)c4)nccn23)c1	inconclusive: 39.8 µM [inhibitor, single point]	
CN(C(=O)CCc1nc(-c2ccccc2F)no1)c1ccc(Cl)cc1	inactive	
O=C1[C@H](Cc2ccccc2)NCC=CC[C@H](c2ccc(Cl)cc2)N1Cc1ccccc1	inconclusive: 39.8 µM [inhibitor, single point]	
Cc1ccc(Cn2c(SCc3ccc(C(=O)NC4CCCCC4)cc3)nc3ccncc32)cc1	inconclusive: 39.8 µM [inhibitor, single point]	
CC1(C2CC2)NC(=O)N(CC(=O)Nc2ccccc2-c2ccccc2)C1=O (stereo not drawn)	inactive	
Cc1cc(NC(=O)c2ccccc2)c(Cl)cc1N		inconclusive: -52.7% [inhibitor]
Cc1ccc(NS(=O)(=O)c2cc([N+](=O)[O-])ccc2NNC(=S)Nc2cc(C)ccc2C)c(C)c1	active: 20 µM	
COc1ccccc1NC1=Nc2cccc3cccc1c23	inactive	
COc1cccc(NS(=O)(=O)c2ccc3c(c2)n(C)c(=O)n3C)c1	inconclusive: 14.1 µM [inhibitor, partial curve]	
COc1ccc(CCNC2=C(Cl)C(=O)N(CCc3ccccc3)C2=O)cc1OC	inconclusive: 39.8 µM [inhibitor, single point]	
C#CCOCCOCCOCCNc1nc(N2CCN(C(=O)CCCCCCCCCCNC(=O)[C@@H](CCSC)n3cc(CCO)nn3)CC2)nc(N2CCN(C(=O)CCCCCCCCCCNC(=O)[C@H]([C@@H](C)CC)n3cc(CCCCN=C(N)N)nn3)CC2)n1	inconclusive: 15.8 µM [inhibitor, partial curve]	
Cc1cccnc1C(NC(=O)C1CCN(Cc2cn(C)c3ccccc23)CC1)c1ccc(Cl)cc1 (stereo not drawn)	inconclusive: 14.1 µM [inhibitor, partial curve, poor fit]	
COc1ccc(/C=N/Nc2cc(C)nc(-n3nc(C)cc3C)n2)cc1	active: 20 µM	
O=C(Nc1cc(=O)[nH]c(=O)[nH]1)c1cccc(Br)c1	inconclusive: 0.67 µM [inhibitor, single point]	
C=CC[C@H](CC(=O)N(CCO)Cc1ccccc1)C(=O)N[C@H](COC(=O)[C@@H](CC=C)Cc1ccc(F)cc1)C(C)(C)C	inconclusive: 39.8 µM [inhibitor, single point]	

Compound	Potency	activity change, negative = inhibition
Cc1c(C(=O)N2CCOCC2)oc2ccc(S(=O)(=O)N3CCCC3)cc12	inconclusive: 31.6 µM [inhibitor, partial curve, poor fit]	
CCOc1cc(/C=C(/NC(C)=O)C(=O)O)cc(Cl)c1OCc1ccc(Br)cc1	inactive	
O=C(COc1ccc2c(c1)OCO2)Nc1nccs1	inconclusive: 20 µM [inhibitor, single point]	
Cc1ccccc1/C=C/c1nc2ccccc2c(=O)[nH]1	inconclusive: 39.8 µM [inhibitor, single point]	
CSc1sc(-c2nnc(SCC(=O)Nc3ccc(Cl)cc3)n2C)c2c1C=CCC2	inconclusive: 29.9 µM [inhibitor, single point]	
C[C@H](CO)N1C[C@H](C)[C@@H](CN(C)Cc2ccc(-c3ccccc3)cc2)Oc2c(NC(=O)Cc3ccccc3)cccc2C1=O	inconclusive: 31.6 µM [inhibitor, single point]	
Cc1ccc(S(=O)(=O)c2c(O)cc(C)c(NS(=O)(=O)c3ccc(Br)cc3)c2C)cc1	inconclusive: 39.8 µM [inhibitor, single point]	
CCSc1nn(CC(=O)Nc2cccc(CC)c2)c(N)c1S(=O)(=O)c1ccccc1	inconclusive: 28.2 µM [inhibitor, single point]	
CCN1C(=NCCCOC(C)C)N[C@@H](CCc2ccccc2)[C@H](C(=O)NCCCOC(C)C)[C@H]1C	inconclusive: 31.6 µM [inhibitor, single point]	
CC(C)(C)OC(=O)N1CCC(c2c(C(=O)NCc3ccccc3)cnn2-c2cccc(F)c2)CC1	inconclusive: 25.1 µM [inhibitor, single point]	
COc1ccccc1NC(=O)Cn1c(O)c(N=NC(=O)c2ccccc2O)c2ccccc21	inconclusive: 29.9 µM [inhibitor, single point]	
Cc1ccc(N=Cc2c(C)[nH]n(-c3nc4ccccc4[nH]3)c2=O)cc1	inconclusive: 20 µM [inhibitor, partial curve]	
COc1ccc(-c2noc(CN(C)S(=O)(=O)c3c(C)cc(C)cc3C)n2)cc1OC	inconclusive: 25.1 µM [inhibitor, partial curve, poor fit]	
CCN(CC)S(=O)(=O)c1ccc(Cl)c(NC(=S)NC(=O)C2CCCC2)c1	inconclusive: 15.8 µM [inhibitor, partial curve]	
C[C@@H]1CC=C[C@H]2[C@H]1C(=O)N(Cc1ccccc1)[C@H]2c1ccc2ccccc2c1Br	inconclusive: 31.6 µM [inhibitor, single point]	
O=C(CSc1nc2c([nH]c3ccccc32)c(=O)n1-c1ccc(Cl)cc1)N1CCc2ccccc21	inactive	
O=C(COc1ccc(F)cc1Br)Nc1ccccc1N1CCOCC1	inconclusive: 39.8 µM [inhibitor, single point]	
COc1ccc(-c2ccccc2)cc1NC(=O)[C@@H]1O[C@H](CO)[C@@H](O)[C@H]1O	inactive	
CCC(C)Nc1nc(N)c([N+](=O)[O-])c(Nc2cc(OC)ccc2OC)n1 (stereo not drawn)	inconclusive: 15.8 µM [inhibitor, partial curve, poor fit]	
Cc1c(OCC(=O)N2C[C@H]3C[C@@H](C2)c2cccc(=O)n2C3)ccc2c3c(c(=O)oc12)CCCC3	inconclusive: 20 µM [inhibitor, partial curve, poor fit]	
CCOC(=O)C1=C(C)NC2=C(C1c1ccc([N+](=O)[O-])cc1)S(=O)(=O)c1ccccc12 (stereo not drawn)	inconclusive: 28.2 µM [inhibitor, single point]	

Compound	Potency	activity change, negative = inhibition
CCOc1ccc(CCNC(=O)c2ccc(OCc3c(C)noc3C)cc2)cc1OCC	inconclusive: 15.8 µM [inhibitor, partial curve]	
O=C(c1ccc(F)cc1)c1cn(Cc2ccccc2F)c2cc3c(cc2c1=O)OCCO3	inactive	
COc1cc(OC)cc(C(=O)NC(=S)NNC(=O)c2cnccn2)c1	inconclusive: 22.4 µM [inhibitor, partial curve]	
Cc1cccc(-c2nc(CN3CCCC(C(=O)N4CCN(c5cc(Cl)ccc5C)CC4)C3)c(C)o2)c1 (stereo not drawn)	inconclusive: 31.6 µM [inhibitor, single point]	
COC(=O)[C@]12CCCCC=C1N(Cc1cccc3ccccc13)C(=O)[C@H](CC(=O)N1CCN(C(=O)c3ccco3)CC1)C2	inconclusive: 28.2 µM [inhibitor, single point]	
CC(=O)OCCCNc1cc(Sc2ccc(C)cc2)c2nonc2c1[N+](=O)[O-]	inactive	
CCN(CC)CCN1C(=O)c2cccc3cc(N)cc(c23)C1=O	inconclusive: 33.6 µM [inhibitor, partial curve, poor fit]	
CCOc1ccc(-c2c[n+]3c(n2-c2ccccc2)CCCCC3)cc1	inconclusive: 2.51 µM [inhibitor, partial curve, poor fit]	
CCCCc1c(-c2ccccc2OC)ncn1CCc1ccccc1OC	inconclusive: 25.1 µM [inhibitor, partial curve, poor fit]	
O=C(CSc1nncs1)Nc1ccc(N2CCCCC2)cc1	inactive	
Cc1cn2c(-c3cn[nH]c3)cnc2c(Nc2ccc(C(=O)N3CCNCC3)cc2F)n1	inconclusive: 27.3 µM [inhibitor, partial curve]	
CCN(c1cccc(C)c1)S(=O)(=O)c1cc(Br)cc2c1N(C(C)=O)C(C)C2 (stereo not drawn)	inconclusive: 25.1 µM [inhibitor, single point]	
O=C(Nc1ccc(Cc2ccncc2)cc1)c1ccc([N+](=O)[O-])o1	inactive	
O=C(Nc1nonc1-c1ccc(Cl)cc1)c1ccccc1	inconclusive: 10.6 µM [inhibitor, partial curve, poor fit]	
Cc1cccc(CNC(=O)Cn2c(-c3cccs3)cc3ccccc32)c1	inconclusive: 8.91 µM [inhibitor, single point]	
COc1ccc2[nH]c3c(c2c1)CCNC3C1CC=C(C)CC1 (stereo not drawn)	inconclusive: 0.67 µM [inhibitor, partial curve, poor fit]	
COc1cc(C(=O)NCc2nnc(SCC(=O)Nc3nccs3)o2)cc(OC)c1OC	inactive	
O=C(CCC(=O)N1CCOc2ccccc21)NCCCN1CCOCC1	inactive	
CS(=O)(=O)Nc1ccc(C2=NN(C(=O)c3ccco3)C(c3ccc(F)cc3)C2)cc1 (stereo not drawn)	inactive	
c1coc(CNc2nc3ccccc3n2CCN2CCOCC2)c1	inactive	
CCOc1ccc2[nH]c(=O)c(CN(Cc3ccco3)C(=O)c3ccc(Br)cc3)cc2c1	inactive	
